This passage reports cell count results from the supplement of paper PMC4604168 (melanoma cell lines).

Test systems include WM1745; WM3526; WM3619; WM451Lu.
Common to all, as to experiment: cell count relative to DMSO control; melanoma cells; higher = more viable cells
Conditions in all cases: library dose: low library concentration; 72 h

This is one part of the list. Many values rest on one well or one pass, so single values are uncertain.
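Note: cell number obtained by counting DAPI-stained nuclei in high-throughput microscope images with image analysis software, screen run in 1,536-well plates.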

As to `COc1ccc(COc2ccc(Cc3cnc(N)nc3N)cc2OC)cc1` + Cn1cc(/C=C2\C(=O)Nc3cccnc32)c2ccccc21 [GW441756] (first compound 1 µM, partner dose 0.4 µM), the cell count in the experiment with WM1745 came to 90.5%; with WM3526, 93.7%; with WM3619, 134%; in the experiment with WM451Lu it was 116%.

For `COC(=O)c1sccc1S(=O)(=O)Nc1ccc(Nc2ccccc2)cc1OC` + O=C(O)C(=O)Nc1sc2c(c1C(=O)O)CCNC2 [TCS401] (first compound 1 µM, partner dose 1.66667 µM), the cell count in the experiment on WM1745 came to 99.6%; with WM3526 it was 112%; in the experiment on WM3619, 94.3%; with WM451Lu, 101%.

For `O=C1NC(=O)/C(=C/c2ccc(-c3ccc(F)cc3O)o2)S1` + CCCCCCCCCCCC1=C(O)C(=O)C=C(O)C1=O [Embelin] (first compound 1 µM, partner dose 1.2 µM), the cell count in the experiment with WM1745 was found to be 100%; in the experiment on WM3526, 107%; with WM3619 it was 111%; with WM451Lu it was 117%.

`CCN(CC)CCCCNc1ncc2cc(-c3cc(OC)cc(OC)c3)c(NC(=O)NC(C)(C)C)nc2n1` + COc1ccc(COc2ccc(Cc3cnc(N)nc3N)cc2OC)cc1 [GW2580] (first compound 0.1 µM, partner dose 1 µM): the cell count in the experiment with WM1745 was found to be 94.7%; with WM3526 it was 107%; with WM3619, 127%; in the experiment on WM451Lu, 102%.

As for `COc1ccc(-c2ccc3c(N4CCOCC4)nc(N4C[C@@H](C)O[C@@H](C)C4)nc3n2)cc1CO` + Oc1nc(-c2ccc(C(F)(F)F)cc2)nc2c1CSCC2 [XAV939] (first compound 0.02 µM, partner dose 2 µM), the cell count in the experiment with WM1745 was 78.7%; with WM3526, 82.1%; in the experiment with WM3619 it was 84%; in the experiment with WM451Lu, 99.7%.

On to `N#Cc1c(O)c2c(-c3ccc(-c4ccccc4O)cc3)csc2[nH]c1=O` + Cc1cc([N+](=O)[O-])ccc1NS(=O)(=O)c1cc(Cl)ccc1Cl [FH535] (first compound 2 µM, partner dose 1 µM), for which the cell count with WM1745 was found to be 102%; in the experiment on WM3526, 101%; with WM3619, 104%; with WM451Lu, 108%.

As for `Oc1nc(-c2ccc(C(F)(F)F)cc2)nc2c1CSCC2` + O=c1cc(-c2cccc3c2Sc2ccccc2S3)oc(N2CCOCC2)c1 [KU55933] (first compound 2 µM, partner dose 1 µM), the cell count with WM1745 came to 81.3%; in the experiment on WM3526, 93.3%; in the experiment with WM3619, 101%; in the experiment with WM451Lu, 91.2%.

`COc1ccc(-c2ccc3c(N4CCOCC4)nc(N4C[C@@H](C)O[C@@H](C)C4)nc3n2)cc1CO` + Cc1cc([N+](=O)[O-])ccc1NS(=O)(=O)c1cc(Cl)ccc1Cl [FH535] (first compound 0.02 µM, partner dose 1 µM): the cell count was 90.9% in the experiment with WM1745, 70.9% in the experiment on WM3526, 73% in the experiment on WM3619 and 100% with WM451Lu.

`COc1ccc2c(c1)CCC1C2CCC2(C)C(NCCCCCCN3C(=O)C=CC3=O)CCC12` (centres undefined) + Cc1cc([N+](=O)[O-])ccc1NS(=O)(=O)c1cc(Cl)ccc1Cl [FH535] (first compound 0.4 µM, partner dose 1 µM): the cell count in the experiment on WM1745 was 87.5%; in the experiment with WM3526 it was 98.5%; in the experiment on WM3619, 95.6%; in the experiment with WM451Lu it was 109%.

As for `Oc1cc(-c2nc(-c3ccccc3)[nH]c2-c2ccncc2)ccc1Cl` + O=C(O)C(=O)Nc1sc2c(c1C(=O)O)CCNC2 [TCS401] (first compound 0.2 µM, partner dose 1.66667 µM), the cell count with WM1745 worked out at 65.8%; in the experiment on WM3526 it was 63.7%; with WM3619, 104%; with WM451Lu, 109%.

Regarding `N#Cc1c(O)c2c(-c3ccc(-c4ccccc4O)cc3)csc2[nH]c1=O` + O=C(O)C(=O)Nc1sc2c(c1C(=O)O)CCNC2 [TCS401] (first compound 2 µM, partner dose 1.66667 µM), the cell count in the experiment on WM1745 was 103%; in the experiment on WM3526, 112%; in the experiment on WM3619, 114%; with WM451Lu it was 80.5%.

`Oc1cc(-c2nc(-c3ccccc3)[nH]c2-c2ccncc2)ccc1Cl` + O=C1NC(=O)/C(=C/c2ccc(-c3ccc(F)cc3O)o2)S1 [AS252424] (first compound 0.2 µM, partner dose 1 µM): the cell count with WM1745 is 91.6%; in the experiment with WM3526, 65.1%; in the experiment on WM3619, 61.6%; with WM451Lu, 107%.

In the case of `Oc1nc(-c2ccc(C(F)(F)F)cc2)nc2c1CSCC2` + CCCCCCCCCCCC1=C(O)C(=O)C=C(O)C1=O [Embelin] (first compound 2 µM, partner dose 1.2 µM), the cell count was 68.9% in the experiment on WM1745, 113% with WM3526, 102% in the experiment on WM3619 and 95.4% in the experiment with WM451Lu.

With `Oc1cc(-c2nc(-c3ccccc3)[nH]c2-c2ccncc2)ccc1Cl` + CCCCCCCCCCCC1=C(O)C(=O)C=C(O)C1=O [Embelin] (first compound 0.2 µM, partner dose 1.2 µM), the cell count in the experiment on WM1745 stood at 94.3%; in the experiment with WM3526, 100%; with WM3619, 108%; with WM451Lu, 80.6%.

With `COc1cc(N2CCC(N3CCN(C)CC3)CC2)ccc1Nc1ncc(Cl)c(Nc2ccccc2S(=O)(=O)C(C)C)n1` + O=c1cc(-c2cccc3c2Sc2ccccc2S3)oc(N2CCOCC2)c1 [KU55933] (first compound 0.08 µM, partner dose 1 µM), the cell count with WM1745 stood at 84.7%; in the experiment with WM3526, 80.8%; with WM3619 it was 90.4%; with WM451Lu it was 106%.

As to `c1cc(-c2cnn3cc(-c4ccc(OCCN5CCCCC5)cc4)cnc23)ccn1` [Dorsomorphin] + CC(C)CCN1c2nc(Nc3cc(F)c(O)c(F)c3)ncc2N(C)C(=O)C1C [BID1870] (first compound 0.4 µM, partner dose 0.2 µM), the cell count in the experiment with WM1745 was determined as 96.4%; in the experiment on WM3526 it was 88.5%; in the experiment on WM3619, 101%; with WM451Lu it was 100%.

Turning to `COC(=O)c1sccc1S(=O)(=O)Nc1ccc(Nc2ccccc2)cc1OC` + Oc1nc(-c2ccc(C(F)(F)F)cc2)nc2c1CSCC2 [XAV939] (first compound 1 µM, partner dose 2 µM), the cell count with WM1745 stood at 80.3%; with WM3526, 112%; with WM3619, 112%; in the experiment with WM451Lu, 93.9%.

As for `COc1ccc(-c2ccc3c(N4CCOCC4)nc(N4C[C@@H](C)O[C@@H](C)C4)nc3n2)cc1CO` + CC(C)CCN1c2nc(Nc3cc(F)c(O)c(F)c3)ncc2N(C)C(=O)C1C [BID1870] (first compound 0.02 µM, partner dose 0.2 µM), the cell count worked out at 95.9% in the experiment on WM1745, 98% with WM3526, 88.8% in the experiment on WM3619 and 115% in the experiment with WM451Lu.

As for `COC(=O)c1sccc1S(=O)(=O)Nc1ccc(Nc2ccccc2)cc1OC` + Cn1cc(/C=C2\C(=O)Nc3cccnc32)c2ccccc21 [GW441756] (first compound 1 µM, partner dose 0.4 µM), the cell count with WM1745 worked out at 82.2%; with WM3526, 96.8%; in the experiment with WM3619, 103%; in the experiment on WM451Lu it was 112%.

Turning to `c1cc(-c2cnn3cc(-c4ccc(OCCN5CCCCC5)cc4)cnc23)ccn1` [Dorsomorphin] + Cn1cc(/C=C2\C(=O)Nc3cccnc32)c2ccccc21 [GW441756] (first compound 0.4 µM, partner dose 0.4 µM), the cell count in the experiment on WM1745 stood at 79.5%; in the experiment with WM3526 it was 107%; in the experiment with WM3619 it was 116%; in the experiment on WM451Lu, 76.1%.

Regarding `O=C(O)C(=O)Nc1sc2c(c1C(=O)O)CCNC2` + Cc1cc([N+](=O)[O-])ccc1NS(=O)(=O)c1cc(Cl)ccc1Cl [FH535] (first compound 1.66667 µM, partner dose 1 µM), the cell count in the experiment on WM1745 was 78.6%; in the experiment on WM3526, 91.2%; in the experiment with WM3619, 96.7%; in the experiment with WM451Lu it was 83.6%.

Regarding `O=S(=O)(c1ccccc1)N(CC(F)(F)F)c1ccc(C(O)(C(F)(F)F)C(F)(F)F)cc1` + c1cc(-c2cnn3cc(-c4ccc(OCCN5CCCCC5)cc4)cnc23)ccn1 [Dorsomorphin] (first compound 1.4 µM, partner dose 0.4 µM), the cell count was 84.5% in the experiment with WM1745, 91.6% in the experiment with WM3526, 127% in the experiment with WM3619 and 93.2% in the experiment with WM451Lu.

Turning to `COc1ccc2c(c1)CCC1C2CCC2(C)C(NCCCCCCN3C(=O)C=CC3=O)CCC12` (centres undefined) + O=c1cc(-c2cccc3c2Sc2ccccc2S3)oc(N2CCOCC2)c1 [KU55933] (first compound 0.4 µM, partner dose 1 µM), the cell count in the experiment on WM1745 is 89.1%; in the experiment with WM3526 it was 80.4%; in the experiment on WM3619, 118%; with WM451Lu, 145%.

With `Cc1cc([N+](=O)[O-])ccc1NS(=O)(=O)c1cc(Cl)ccc1Cl` + c1cc(-c2cnn3cc(-c4ccc(OCCN5CCCCC5)cc4)cnc23)ccn1 [Dorsomorphin] (first compound 1 µM, partner dose 0.4 µM), the cell count amounted to 78.8% in the experiment with WM1745, 83.6% in the experiment on WM3526, 109% in the experiment with WM3619 and 90.6% in the experiment with WM451Lu.

As for `N#Cc1c(O)c2c(-c3ccc(-c4ccccc4O)cc3)csc2[nH]c1=O` + COc1cc(N2CCC(N3CCN(C)CC3)CC2)ccc1Nc1ncc(Cl)c(Nc2ccccc2S(=O)(=O)C(C)C)n1 [NVP-TAE684] (first compound 2 µM, partner dose 0.08 µM), the cell count in the experiment on WM1745 is 100%; in the experiment with WM3526 it was 111%; with WM3619, 115%; in the experiment with WM451Lu, 96.1%.

As for `Oc1cc(-c2nc(-c3ccccc3)[nH]c2-c2ccncc2)ccc1Cl` + Cc1cc([N+](=O)[O-])ccc1NS(=O)(=O)c1cc(Cl)ccc1Cl [FH535] (first compound 0.2 µM, partner dose 1 µM), the cell count with WM1745 came to 73.2%; in the experiment on WM3526 it was 76.9%; in the experiment on WM3619 it was 78.3%; in the experiment with WM451Lu, 107%.

In the case of `c1cc(-c2cnn3cc(-c4ccc(OCCN5CCCCC5)cc4)cnc23)ccn1` [Dorsomorphin] + O=c1cc(-c2cccc3c2Sc2ccccc2S3)oc(N2CCOCC2)c1 [KU55933] (first compound 0.4 µM, partner dose 1 µM), the cell count with WM1745 was 83%; with WM3526 it was 105%; in the experiment with WM3619 it was 110%; with WM451Lu, 114%.

As to `O=C(O)C(=O)Nc1sc2c(c1C(=O)O)CCNC2` + Cn1cc(/C=C2\C(=O)Nc3cccnc32)c2ccccc21 [GW441756] (first compound 1.66667 µM, partner dose 0.4 µM), the cell count with WM1745 amounted to 89.2%; with WM3526, 116%; with WM3619, 90.6%; in the experiment on WM451Lu it was 113%.

Turning to `CCN(CC)CCCCNc1ncc2cc(-c3cc(OC)cc(OC)c3)c(NC(=O)NC(C)(C)C)nc2n1` + O=c1cc(-c2cccc3c2Sc2ccccc2S3)oc(N2CCOCC2)c1 [KU55933] (first compound 0.1 µM, partner dose 1 µM), the cell count was 86.1% with WM1745, 82.6% with WM3526, 88.6% in the experiment with WM3619 and 103% with WM451Lu.

For `CCN(CC)CCCCNc1ncc2cc(-c3cc(OC)cc(OC)c3)c(NC(=O)NC(C)(C)C)nc2n1` + c1cc(-c2cnn3cc(-c4ccc(OCCN5CCCCC5)cc4)cnc23)ccn1 [Dorsomorphin] (first compound 0.1 µM, partner dose 0.4 µM), the cell count turned out to be 84.1% in the experiment on WM1745, 97.7% with WM3526, 104% with WM3619 and 96.1% in the experiment on WM451Lu.

Consider `COC(=O)c1sccc1S(=O)(=O)Nc1ccc(Nc2ccccc2)cc1OC` + O=C1NC(=O)/C(=C/c2ccc(-c3ccc(F)cc3O)o2)S1 [AS252424] (first compound 1 µM, partner dose 1 µM), for which the cell count in the experiment with WM1745 was 78.1%; in the experiment with WM3526, 85.6%; in the experiment on WM3619, 86.3%; in the experiment on WM451Lu, 103%.
